Measurements from the supplement of paper PMC8728848.
This is one part of the list.

Key:
Assay in all cases: glycan array binding signal (z-score within array); higher = stronger binding
Conditions in all cases: glycan notation: IUPAC condensed, linker removed
Fuc(a1-2)Gal = molecular target: Fuc(a1-2)Gal
How it was run: (§1)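 From the Consortium for Functional Glycomics database, 3228 arrays were curated, keeping only those whose protein sequence was available. Binding is given as a within-array Z-score averaged across arrays sharing a protein sequence and across linkers. Negative Z-scores can be read as non-binding.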

Fuc(a1-2)Gal(b1-3)GalNAc = molecular target: Fuc(a1-2)Gal(b1-3)GalNAc
How it was run: as §1

[1] = molecular target: Fuc(a1-2)Gal(b1-3)GalNAc(b1-3)Gal
How it was run: as §1

[2] = molecular target: Fuc(a1-2)Gal(b1-3)GalNAc(b1-3)Gal(a1-4)Gal(b1-4)Glc
How it was run: as §1

[3] = molecular target: Fuc(a1-2)Gal(b1-3)GalNAc(b1-3)Gal(b1-4)Glc
How it was run: as §1

[4] = molecular target: Fuc(a1-2)Gal(b1-3)GalNAc(b1-4)[Neu5Ac(a2-3)]Gal(b1-4)Glc
How it was run: as §1

[5] = molecular target: Fuc(a1-2)Gal(b1-3)[Fuc(a1-4)]GlcNAc
How it was run: as §1

Fuc(a1-2)Gal(b1-4)Glc = molecular target: Fuc(a1-2)Gal(b1-4)Glc
How it was run: as §1

Fuc(a1-2)Gal(b1-4)GlcNAc = molecular target: Fuc(a1-2)Gal(b1-4)GlcNAc
How it was run: as §1

[6] = molecular target: Fuc(a1-2)Gal(b1-4)GlcNAc(b1-3)Gal(b1-4)GlcNAc
How it was run: as §1

[7] = molecular target: Fuc(a1-2)Gal(b1-4)GlcNAc(b1-3)Gal(b1-4)GlcNAc(b1-3)Gal(b1-4)GlcNAc
How it was run: as §1

[8] = molecular target: Fuc(a1-2)Gal(b1-4)[Fuc(a1-3)]GalNAc(b1-3)Gal(b1-4)[Fuc(a1-3)]GlcNAc
How it was run: as §1

[9] = molecular target: Fuc(a1-2)Gal(b1-4)[Fuc(a1-3)]GalNAc(b1-3)Gal(b1-4)[Fuc(a1-3)]GlcNAc(b1-3)Gal(b1-4)[Fuc(a1-3)]GalNAc
How it was run: as §1

[10] = molecular target: Fuc(a1-2)Gal(b1-4)[Fuc(a1-3)]GlcNAc
How it was run: as §1

Fuc(a1-2)GlcNAc = molecular target: Fuc(a1-2)GlcNAc
How it was run: as §1

Fuc(a1-2)[Gal(a1-3)]Gal = molecular target: Fuc(a1-2)[Gal(a1-3)]Gal
How it was run: as §1

[11] = molecular target: Fuc(a1-2)[Gal(a1-3)]Gal(b1-3)GlcNAc
How it was run: as §1

[12] = molecular target: Fuc(a1-2)[Gal(a1-3)]Gal(b1-4)Glc
How it was run: as §1

[13] = molecular target: Fuc(a1-2)[Gal(a1-3)]Gal(b1-4)GlcNAc
How it was run: as §1

[14] = molecular target: Fuc(a1-2)[Gal(a1-3)]Gal(b1-4)[Fuc(a1-3)]GlcNAc
How it was run: as §1

[15] = molecular target: Fuc(a1-2)[Gal(a1-4)]Gal(b1-4)GalNAc
How it was run: as §1

[16] = molecular target: Fuc(a1-2)[GalNAc(a1-3)]Gal
How it was run: as §1

[17] = molecular target: Fuc(a1-2)[GalNAc(a1-3)]Gal(b1-3)GlcNAc
How it was run: as §1

[18] = molecular target: Fuc(a1-2)[GalNAc(a1-3)]Gal(b1-4)Glc
How it was run: as §1

[19] = molecular target: Fuc(a1-2)[GalNAc(a1-3)]Gal(b1-4)GlcNAc
How it was run: as §1

[20] = molecular target: Fuc(a1-2)[GalNAc(a1-3)]Gal(b1-4)[Fuc(a1-3)]GlcNAc
How it was run: as §1

[21] = molecular target: Fuc(a1-2)[GalNAc(a1-4)]Gal(b1-4)GlcNAc
How it was run: as §1

Fuc(a1-3)GlcNAc = molecular target: Fuc(a1-3)GlcNAc
How it was run: as §1

[22] = molecular target: Fuc(a1-3)[Gal(b1-4)]GlcNAc
How it was run: as §1

[23] = molecular target: Fuc(a1-3)[Gal(b1-4)]GlcNAc(b1-4)Gal(b1-4)[Fuc(a1-3)]GlcNAc
How it was run: as §1

[24] = molecular target: Fuc(a1-3)[Gal(b1-4)]GlcNAc(b1-4)Gal(b1-4)[Fuc(a1-3)]GlcNAc(b1-4)Gal(b1-4)[Fuc(a1-3)]GlcNAc
How it was run: as §1

[25] = molecular target: Fuc(a1-3)[Gal3S(b1-4)]GlcNAc
How it was run: as §1

[26] = molecular target: Fuc(a1-3)[GalNAc(b1-4)]Gal(b1-4)GlcNAc
How it was run: as §1

Fuc(a1-4)GlcNAc = molecular target: Fuc(a1-4)GlcNAc
How it was run: as §1

Fuc(b1-3)GlcNAc = molecular target: Fuc(b1-3)GlcNAc
How it was run: as §1

Gal(a1-2)Gal = molecular target: Gal(a1-2)Gal
How it was run: as §1

Gal(a1-3)Gal = molecular target: Gal(a1-3)Gal
How it was run: as §1

Gal(a1-3)Gal(b1-3)Glc = molecular target: Gal(a1-3)Gal(b1-3)Glc
How it was run: as §1

Gal(a1-3)Gal(b1-3)GlcNAc = molecular target: Gal(a1-3)Gal(b1-3)GlcNAc
How it was run: as §1

Gal(a1-3)Gal(b1-4)GlcNAc = molecular target: Gal(a1-3)Gal(b1-4)GlcNAc
How it was run: as §1

[27] = molecular target: Gal(a1-3)Gal(b1-4)[Fuc(a1-3)]GalNAc
How it was run: as §1

Gal(a1-3)GlcNAc = molecular target: Gal(a1-3)GlcNAc
How it was run: as §1

[28] = molecular target: Gal(a1-3)[Gal(a1-4)]Gal(b1-4)GlcNAc
How it was run: as §1

Gal(a1-4)Gal(b1-4)Gal = molecular target: Gal(a1-4)Gal(b1-4)Gal
How it was run: as §1

Gal(a1-4)Gal(b1-4)GalNAc = molecular target: Gal(a1-4)Gal(b1-4)GalNAc
How it was run: as §1

Gal(a1-4)GlcNAc = molecular target: Gal(a1-4)GlcNAc
How it was run: as §1

Gal(a1-6)Glc = molecular target: Gal(a1-6)Glc
How it was run: as §1

Gal(b1-2)Gal = molecular target: Gal(b1-2)Gal
How it was run: as §1

Gal(b1-3)Gal = molecular target: Gal(b1-3)Gal
How it was run: as §1

Gal(b1-3)GalNAc = molecular target: Gal(b1-3)GalNAc
How it was run: as §1

[29] = molecular target: Gal(b1-3)GalNAc(b1-3)Gal(a1-4)Gal(b1-4)Glc
How it was run: as §1

[30] = molecular target: Gal(b1-3)GalNAc(b1-3)Gal(b1-4)Glc
How it was run: as §1

[31] = molecular target: Gal(b1-3)GalNAc(b1-3)Gal(b1-4)GlcNAc
How it was run: as §1

[32] = molecular target: Gal(b1-3)GalNAc(b1-4)Gal(b1-4)Glc
How it was run: as §1

[33] = molecular target: Gal(b1-3)GalNAc(b1-4)[Neu5Ac(a2-3)]Gal(b1-4)Glc
How it was run: as §1

[34] = molecular target: Gal(b1-3)[Fuc(a1-4)]GlcNAc
How it was run: as §1

[35] = molecular target: Gal(b1-3)[Fuc(a1-4)]GlcNAc(b1-3)Gal(b1-4)GlcNAc
How it was run: as §1

[36] = molecular target: Gal(b1-3)[Fuc(a1-4)]GlcNAc(b1-3)Gal(b1-4)[Fuc(a1-3)]GlcNAc
How it was run: as §1

[37] = molecular target: Gal(b1-3)[GlcNAc(b1-6)]GalNAc
How it was run: as §1

[38] = molecular target: Gal(b1-3)[GlcNAc(b1-6)]GlcNAc
How it was run: as §1

B1: RNase 1 (Homo sapiens) (protein)
chain: KESRAKKFQRQHMDSDSSPSSSSTYCNQMMRRRNMTQGRCKPVNTFVHEPLVDVQNVCFQEKVTCKNGQGNCYKSNSSMHITDCRLTNGSRYPNCAYRTSPKERHIIVACEGSPYVPVHFDASVEDST
In the case of B1, the “glycan array binding signal (z-score)” value (Fuc(a1-2)Gal) is reported as -0.156, the “glycan array binding signal (z-score)” value (Fuc(a1-2)Gal(b1-3)GalNAc) is reported as -0.157 and the “glycan array binding signal (z-score)” value [1] is reported as -0.195. For the same binder, the “glycan array binding signal (z-score)” value [2] was 1.93, the “glycan array binding signal (z-score)” value [3] was -0.138 and the “glycan array binding signal (z-score)” value [4] was -0.19. For the same binder, the “glycan array binding signal (z-score)” value [5] was -0.174, the “glycan array binding signal (z-score)” value (Fuc(a1-2)Gal(b1-4)Glc) was -0.104 and the “glycan array binding signal (z-score)” value (Fuc(a1-2)Gal(b1-4)GlcNAc) was -0.178. For the same binder, the “glycan array binding signal (z-score)” value [6] was -0.225, the “glycan array binding signal (z-score)” value [7] was -0.177 and the “glycan array binding signal (z-score)” value [8] was -0.193. The “glycan array binding signal (z-score)” value [9] was -0.138, the “glycan array binding signal (z-score)” value [10] was -0.212 and the “glycan array binding signal (z-score)” value (Fuc(a1-2)GlcNAc) was -0.17. The “glycan array binding signal (z-score)” value (Fuc(a1-2)[Gal(a1-3)]Gal) was -0.14, the “glycan array binding signal (z-score)” value [11] was -0.126 and the “glycan array binding signal (z-score)” value [12] was -0.211. The “glycan array binding signal (z-score)” value [13] was -0.134, the “glycan array binding signal (z-score)” value [14] was -0.168 and the “glycan array binding signal (z-score)” value [15] was 0.238. The “glycan array binding signal (z-score)” value [16] was -0.151, the “glycan array binding signal (z-score)” value [17] was -0.241 and the “glycan array binding signal (z-score)” value [18] was -0.171. For the same binder, the “glycan array binding signal (z-score)” value [19] was -0.167, the “glycan array binding signal (z-score)” value [20] was -0.057 and the “glycan array binding signal (z-score)” value [21] was -0.213. The “glycan array binding signal (z-score)” value (Fuc(a1-3)GlcNAc) was -0.013, the “glycan array binding signal (z-score)” value [22] was -0.227 and the “glycan array binding signal (z-score)” value [23] was -0.08. The “glycan array binding signal (z-score)” value [24] was -0.074, the “glycan array binding signal (z-score)” value [25] was -0.168 and the “glycan array binding signal (z-score)” value [26] was -0.22. For the same binder, the “glycan array binding signal (z-score)” value (Fuc(a1-4)GlcNAc) was -0.217, the “glycan array binding signal (z-score)” value (Fuc(b1-3)GlcNAc) was -0.234 and the “glycan array binding signal (z-score)” value (Gal(a1-2)Gal) was -0.153. For the same binder, the “glycan array binding signal (z-score)” value (Gal(a1-3)Gal) was -0.208, the “glycan array binding signal (z-score)” value (Gal(a1-3)Gal(b1-3)Glc) was -0.212 and the “glycan array binding signal (z-score)” value (Gal(a1-3)Gal(b1-3)GlcNAc) was -0.213. For the same binder, the “glycan array binding signal (z-score)” value (Gal(a1-3)Gal(b1-4)GlcNAc) was -0.254, the “glycan array binding signal (z-score)” value [27] was -0.199 and the “glycan array binding signal (z-score)” value (Gal(a1-3)GlcNAc) was -0.175. For the same binder, the “glycan array binding signal (z-score)” value [28] was -0.158, the “glycan array binding signal (z-score)” value (Gal(a1-4)Gal(b1-4)Gal) was 7.93 and the “glycan array binding signal (z-score)” value (Gal(a1-4)Gal(b1-4)GalNAc) was 8.87. For the same binder, the “glycan array binding signal (z-score)” value (Gal(a1-4)GlcNAc) was -0.225, the “glycan array binding signal (z-score)” value (Gal(a1-6)Glc) was 0.634 and the “glycan array binding signal (z-score)” value (Gal(b1-2)Gal) was 0. The “glycan array binding signal (z-score)” value (Gal(b1-3)Gal) was -0.006, the “glycan array binding signal (z-score)” value (Gal(b1-3)GalNAc) was -0.191 and the “glycan array binding signal (z-score)” value [29] was 0.495. For the same binder, the “glycan array binding signal (z-score)” value [30] was 0.641, the “glycan array binding signal (z-score)” value [31] was -0.176 and the “glycan array binding signal (z-score)” value [32] was -0.202. For the same binder, the “glycan array binding signal (z-score)” value [33] was 0.026, the “glycan array binding signal (z-score)” value [34] was -0.204 and the “glycan array binding signal (z-score)” value [35] was -0.135. For the same binder, the “glycan array binding signal (z-score)” value [36] was -0.114, the “glycan array binding signal (z-score)” value [37] was -0.236 and the “glycan array binding signal (z-score)” value [38] was -0.197.
